PubChem BioAssay AID1347417 (National Center for Advancing Translational Sciences (NCATS), 2020)
Hit rate of the full screen: of about 120,000 compounds, about 5,300 (4.4%) were called active. Inconclusive results, whose numbers are uncertain, are shown with a selection of clear calls. The call rests on the fitted dose curve; in most records, active means well fitted inhibition curve with a large enough effect; inconclusive means small, poorly fitted or top-dose-only effect; inactive means no such curve, though single readings can be large or run the other way. A potency beside an inconclusive call is a rough fit, not a confirmed value.
Potency means the concentration at half of the fitted maximal effect; tags describe the fitted curve by direction and shape.

Assay: qHTS Primary assay for Inhibitors of Plasmodium falciparum Dd2 growth in vitro; further: nearly all actives have a fitted effect of over 65% in size;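 on activity, negative = inhibition: plate controls were DMSO vehicle for no effect and reference drug for full effect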
Settings: P. falciparum Dd2 growth, SYBR Green, 72 h; activity, negative = inhibition: at 28.9 µM (top of the series) unless noted; series mostly up to 28.9 µM
In short: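 Readout: SYBR Green fluorescence, 485 nm excitation, 535 nm emission, after ~16 h lysis at 37C. Before that, Dd2-infected red cells (2.5% hematocrit) grew 72 h with compound, 29 uM top final concentration.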
For `COc1ccc(C(=O)N2C(C(=O)NCc3ccccc3)COC23CCN(C(=O)C(C)(C)C)CC3)cc1` (stereo not given), the Potency was inconclusive: 20 µM [inhibitor, partial curve, poor fit]. With `Cc1ccc(C)c(N2CCN(CCCNC(=O)c3cnn(-c4cccc(Cl)c4)c3C3CCN(C(=O)OC(C)(C)C)CC3)CC2)c1` the Potency was active: 1.41 µM. For `COc1ccccc1CNC[C@H]1Cn2c(-c3cccc(Cl)c3)cnc2CO1`, the Potency was active: 12.6 µM. For `Cc1ccc(-n2c(=O)c3c(cnn3C)n(CC(=O)Nc3cccc(Cl)c3)c2=O)cc1`, the Potency was inconclusive: 10 µM [inhibitor, single point]. For `Cc1ccc(CNC(=O)C2CCN(C(=O)N3CC(C)Oc4ccc(Cl)cc43)CC2)cc1` (stereo not given), the Potency was inconclusive: 20 µM [inhibitor, single point]. With `Cc1noc(Cn2c(=O)c3ccccc3n(CC(=O)Nc3cc(Cl)ccc3C)c2=O)n1` the Potency was inconclusive: 11.2 µM [inhibitor, partial curve, poor fit]. With `Cc1ccc(-c2nnc(Nc3ccc(OCC(N)=O)cc3)c3ccccc23)cc1S(=O)(=O)NCC1CCCO1` (stereo not given) the Potency was active: 1.12 µM. For `CCn1cnnc1CC1CCN(C(=O)c2ccc3ccccc3n2)C1` (stereo not given), the Potency was “inactive”. With `CCC1(N2CCN(C(=O)c3ccc(C(F)(F)F)s3)CC2)CCN(C(=O)NC)C1` (stereo not given) the Potency was “inactive”. With `Oc1ccccc1CN1CCC(O)(c2csc(CN3CC[C@@H](O)C3)n2)CC1` the Potency was inconclusive: 15.8 µM [inhibitor, single point]. In the case of `Cc1nsc(NC(=O)N2CCCC2C)n1` (stereo not given), the Potency is reported as “inactive”. In the case of `CCO[C@H]1CN(C2CCN(c3ccc4c(c3)CCC4)CC2)C[C@@H]1O`, the Potency is reported as inconclusive: 7.94 µM [inhibitor, partial curve, poor fit]. With `O=C(CC[C@@H]1CNC(=O)[C@@H]2C[C@H](NC(=O)Nc3cccc(Cl)c3)CN12)NCc1cccnc1` the Potency was inconclusive: 1.12 µM [inhibitor, full curve]. For `CC1(COCC2CC2)COc2ccc(C(=O)Nc3ccc(Cl)cc3)cc2N1` (stereo not given), the Potency was inconclusive: 2.82 µM [inhibitor, partial curve, poor fit]. In the case of `CCCN1C(=O)CC[C@H]2CN(c3cc(OC)nc(N)n3)CC[C@H]21`, the Potency is reported as “inactive”. For `CCOc1ccccc1NC(=O)Cn1c(=O)nc(-c2ccccc2F)c2cc(Cl)ccc21`, the Potency was inconclusive: 10 µM [inhibitor, partial curve, poor fit]. With `COc1ccccc1NC(=O)c1cc2c(-c3ccccc3)nn(-c3ccccc3)c2s1` the Potency was inconclusive: 11.2 µM [inhibitor, single point]. With `Cc1cnc(C2CCC2)n1CCNS(=O)(=O)c1ccccc1` the Potency was “inactive”. With `COc1ccc(OCc2nc3ccccc3n2Cc2ccc(C(C)(C)C)cc2)cc1` the Potency was active: 11.2 µM. For `O=C(NC1CCCN(c2cc(-c3ccccc3)[nH]n2)C1)c1nccc2ccccc12` (stereo not given), the Potency was “inactive”. In the case of `Cc1ccc(OCc2nc(C3CCN(C(=O)c4ccn[nH]4)CC3)no2)cc1`, the Potency is reported as inconclusive: 17.8 µM [inhibitor, single point]. In the case of `CCCNC(=O)CC(c1ccc(OC)c(OC)c1)c1c[nH]c2c(CC)cccc12` (stereo not given), the Potency is reported as “inactive”. With `O=C(NC1CC1)c1ccc2c(c1)C1(CCN(CC3CC3)C1)CN2Cc1ccccc1` (stereo not given) the Potency was inconclusive: 5.62 µM [inhibitor, single point]. In the case of `CCCS(=O)(=O)N1CCC2(CC1)CN(Cc1ccc(OC)cc1)C2=O`, the Potency is reported as “inactive”. For `COc1cccc(N2CCN(C(=O)c3ccc4nc(N5CCC(C)CC5)sc4c3)CC2)c1`, the Potency was inconclusive: 11.2 µM [inhibitor, single point]. In the case of `O=C(c1ccccc1)N1CCC2(CC1)C(=O)NCN2C(=O)Cc1ccc(O)cc1`, the Potency is reported as inconclusive: 5.01 µM [inhibitor, partial curve, poor fit]. In the case of `O=C(NCC(c1ccc2c(c1)OCO2)N1CCN(c2ccccc2)CC1)C(=O)Nc1ccccc1F` (stereo not given), the activity, negative = inhibition is reported as inconclusive: -79.1% [inhibitor] [at 0.594 µM]. In the case of `COc1ccccc1N1CCN(C(=O)C[C@@H]2CCNC[C@@H]2Cc2cc(-c3ccc(C(C)(C)C)cc3)on2)CC1`, the Potency is reported as inconclusive: 2.51 µM [inhibitor, full curve]. In the case of `CCCCCn1c(CCCNC(=O)c2ccccc2OC)nc2ccccc21`, the Potency is reported as inconclusive: 14.1 µM [inhibitor, single point]. With `COc1ccc(-c2noc(Nc3ccc(OC)cc3OC)n2)cc1` the Potency was inconclusive: 14.1 µM [inhibitor, single point]. With `C[C@@H]1CN(C(=O)c2ccc3c(c2)NC(C)(CCCCc2ccccc2)CO3)C[C@H](C)O1` (stereo not given in full) the Potency was inconclusive: 11.2 µM [inhibitor, partial curve, poor fit]. For `CC(C)(C)c1ccc(C(=O)N2CCN(C(=O)c3nnn4c3COC(c3ccc(F)cc3)C4)CC2)cc1` (stereo not given), the Potency was inconclusive: 1.26 µM [inhibitor, partial curve, poor fit]. For `Cc1nc2n(c1C(=O)NCc1cccs1)CCC(Nc1ccccc1)C2` (stereo not given), the Potency was inconclusive: 31.6 µM [inhibitor, single point]. For `Cc1ccn2c(Nc3ccccc3)c(-c3c[nH]c4ccccc34)nc2c1`, the Potency was inconclusive: 12.6 µM [inhibitor, single point]. With `CC(=O)N1CCC2(CC1)CN(C(=O)c1cccc3[nH]ccc13)Cc1ccccc1O2` the activity, negative = inhibition was inconclusive: -70.4% [inhibitor]. With `Cc1ccc(-c2nnc3ccccc3c2C(=O)Nc2ccc(F)cc2)cc1` the Potency was inconclusive: 3.98 µM [inhibitor, single point]. For `COc1ccc(C(C)=O)cc1CSc1nc(Nc2ccc(F)c(F)c2)c2ccccc2n1`, the Potency was active: 11.2 µM. With `COc1ccc(S(=O)(=O)N2CCC(C3CCN(C(C)=O)CC3)C2)cc1` (stereo not given) the Potency was inconclusive: 17.8 µM [inhibitor, single point]. With `COc1cccc(CNC(=O)[C@@H]2C[C@@H](O)CN2C2CCN(C(=O)COc3cccc(C)c3)CC2)c1` the Potency was inconclusive: 12.6 µM [inhibitor, single point]. In the case of `Cc1ccc(N2CCN(c3nc4ccc(C(=O)c5ccccc5)cc4n4cnnc34)CC2)c(C)c1`, the Potency is reported as “inactive”.
